This is one part of the list.
These compounds were tested on S. aureus RN4220 (assay: growth inhibition call (relative growth <= 0.2)). Conditions: 50 µM.

Growth inhibition call, active:
COC(=O)c1c(C)c2c(c(C)c1O)OC(=O)c1c(C)c(Cl)c(O)c(Cl)c1O2

Growth inhibition call, inactive:
CN1C(=O)c2cc(NC(=O)c3cnccn3)ccc2OC[C@H]2O[C@@H](CC(=O)N[C@H]3CCN(Cc4ccccc4)C3)CC[C@@H]21
C[C@@H]1CN([C@@H](C)CO)C(=O)c2cc(NS(=O)(=O)c3ccc(F)cc3)ccc2O[C@@H](C)CCCCO[C@@H]1CN(C)C(=O)Cc1ccccc1
CCNC(=O)[C@H]1[C@H](CO)[C@H]2Cn3c(ccc(-c4cccc(OC)c4)c3=O)[C@H]2N1S(C)(=O)=O
COc1nc(N)nc2c1ncn2[C@@H]1O[C@H](CO[P@@](=O)(N[C@@H](C)C(=O)OCC(C)(C)C)Oc2cccc3ccccc23)[C@@H](O)[C@@]1(C)O
CC(=O)Oc1ccn(C)c(=O)c1C#N
C[C@@H]1CN([C@@H](C)CO)C(=O)c2ccccc2-c2ccccc2CO[C@@H]1CN(C)Cc1cccc2c1OCCCO2
Cl.NC(CS)C(=O)O (stereo not given)
C[C@@H]1CCCCO[C@@H](CN(C)Cc2ccccc2)[C@H](C)CN([C@H](C)CO)C(=O)c2cc(NC(=O)CCC(F)(F)F)ccc2O1
Oc1cccc(O)c1O
COc1ccc2c3c(n(c2c1)C)[C@@H](CO)N(C[C@]13CCN(CC1)C(=O)CN(C)C)S(=O)(=O)C
CNC(=O)N1C[C@H]2C[C@@H]3[C@@](C1)(CN(C)S3(=O)=O)O2
C[C@H](CO)N1C[C@H](C)[C@H](CN(C)Cc2ccccc2)OCCCC[C@H](C)Oc2ccc(NC(=O)c3ccccc3)cc2C1=O
C[C@@H]1CCCCO[C@H](CN(C)C(=O)Nc2ccc3c(c2)OCO3)[C@H](C)CN([C@@H](C)CO)C(=O)c2cc(NC(=O)Cc3ccccc3)ccc2O1
C[C@@H]1CCCCO[C@H](CN(C)S(=O)(=O)c2cn(C)cn2)[C@H](C)CN([C@@H](C)CO)C(=O)c2cc(NS(=O)(=O)c3ccc(F)cc3)ccc2O1
C[C@@H]1CN([C@@H](C)CO)C(=O)c2ccccc2-c2ccccc2CO[C@@H]1CN(C)C(=O)Nc1ccc(-c2ccccc2)cc1
C[C@@H]1CN([C@H](C)CO)C(=O)c2ccccc2-c2ccccc2CO[C@H]1CN(C)C(=O)Nc1ccc(F)cc1
C[C@@H]1CN([C@@H](C)CO)C(=O)c2cc(NC(=O)c3ccncc3)ccc2O[C@H]1CN(C)S(=O)(=O)c1ccc(F)cc1
COc1ccc(S(=O)(=O)N(C)C[C@H]2Oc3c(NS(=O)(=O)c4ccccc4)cccc3C(=O)N([C@H](C)CO)C[C@@H]2C)cc1
CCc1c(C)[nH]c(N2CCOCC2)nc1=O
COCC(=O)Nc1ccc2c(c1)C(=O)N(C)C[C@@H](OC)[C@@H](C)CN(C(=O)c1ccccc1F)[C@@H](C)CO2
NNC(=O)CS(=O)(=O)c1ccc(Cl)cc1
O=C1OCC=C[C@H]2O[C@@]34C=CCN(c5ccc6ccccc6c5)C(=O)[C@H]3N(CCCCCCO)C(=O)[C@@H]4[C@@H]12
COc1ccc(S(=O)(=O)N(C)C[C@H]2Oc3ccc(NC(=O)NC(C)C)cc3C(=O)N([C@@H](C)CO)C[C@H]2C)cc1
C[C@@H]1CCCCO[C@H](CN(C)S(=O)(=O)c2ccc(Cl)cc2)[C@@H](C)CN([C@H](C)CO)C(=O)c2cc(NS(=O)(=O)c3cccs3)ccc2O1
C[C@@H]1CN([C@@H](C)CO)S(=O)(=O)c2ccc(-c3cccc(C#N)c3)cc2O[C@@H]1CN(C)C(=O)c1cccnc1
COCC#Cc1cnc2c(c1)C(=O)N([C@@H](C)CO)C[C@H](C)[C@H](CN(C)C(=O)c1ccc3c(c1)OCO3)O2
COc1ccc(S(=O)(=O)Nc2ccc3c(c2)C(=O)N([C@H](C)CO)C[C@H](C)[C@@H](CN(C)Cc2ccc(Cl)c(Cl)c2)OCCCC[C@@H](C)O3)cc1
CCC(=O)N1C[C@]2(C1)CN([C@@H](CO)c1c2c2ccc(cc2n1C)OC)S(=O)(=O)C
COc1ccc(S(=O)(=O)N(C)C[C@@H]2Oc3ccc(NS(C)(=O)=O)cc3CC(=O)N([C@@H](C)CO)C[C@H]2C)cc1
C[C@@H]1CN([C@H](C)CO)S(=O)(=O)c2ccc(C#CC3(O)CCCC3)cc2O[C@@H]1CN(C)C(=O)Cc1ccccc1
C[C@H](CO)N1C[C@H](C)[C@H](CN(C)C(=O)Nc2ccc(F)cc2)Oc2ccc(NC(=O)C3CC3)cc2CC1=O
O=C(C[C@H]1C[C@@H]2c3cc(NC(=O)C4CCOCC4)ccc3O[C@@H]2[C@@H](CO)O1)NCCN1CCCCC1
O=C(C[C@@H]1C[C@@H]2c3cc(NC(=O)Nc4ccccc4)ccc3O[C@@H]2[C@H](CO)O1)NCCN1CCCCC1
C[C@@H]1CN([C@H](C)CO)C(=O)CCCn2cc(nn2)CO[C@H]1CN(C)C(=O)Nc1ccc2c(c1)OCCO2
O=C1CSC(/N=C/c2ccccc2O)=NN1
C[C@@H]1CN([C@@H](C)CO)C(=O)c2cc(NC(=O)CCCCCC(=O)Nc3ccccc3N)ccc2O[C@H]1CN(C)S(C)(=O)=O
COCC(=O)N1CC[C@]2(CC1)CN([C@H](CO)c1[nH]c3cc(ccc3c12)OC)S(=O)(=O)C
C[C@H](N)[C@H](O)c1cccc(O)c1
C[C@H]1CN([C@@H](C)CO)C(=O)Cc2cc(NC(=O)Nc3ccc4c(c3)OCO4)ccc2O[C@H]1CN(C)Cc1ccc(C(F)(F)F)cc1

— the antibiotic and cytotoxicity screens of Wong et al. (2023)
